Read counts are not given, so values of variants with three or more changes are uncertain.
B1: OR4K15 (parent)
chain: GUUAACGGUCAUAGGCCAUGGAAACUAGGAGCACCAUUUCGCUGCCAGUGAAGAAAUGAACAAAGAAAAUCUGGGCCAGGCAGGCAUCAAAAGAAAUAGUCUUGCGCUCAACCAGAAAGUCUGUAAUCAUUUUAAGGGUA

Variants of: B1
Assay: self-cleavage, relative activity (ratio to wild type); higher = more cleavage; in vitro, sequencing; the parent is a self-cleaving ribozyme

| Variant | self-cleavage |
| --- | --- |
| A27U U108C U130C | 0.01 |
| A23G A52G A68G G119U A126U | 0.89 |
| U37C A116G A117G A126G | 0.65 |
| A22G A110C U127C A140G | 0.11 |
| A62G A82G A135U | 0.31 |
| A51G U103C A114G | 0.2 |
| A36G A55G A69C A90G | 1.29 |
| A86U A96G G106U U127C | 0.01 |
| A33G U43C A90U | 1.38 |
| A4G A67G A96G | 0.9 |
| U3C A62U A114U | 0.13 |
| G28U A33G G83C A91G U122A | 0.04 |
| A13U A33G A67G A91G A95G A125G | 0.93 |
| A116G U120C U131C | 0.3 |
| A90C A117G U122C | 1.77 |
| U12C G20A A62G | 0.91 |
| U39C A96G G106A A114G U127A | 0 |
| C85U U108C U139A | 0.03 |
| U57G U87C A89C A91G A126G | 0.33 |
| A51G A68G A78U A82U A96C | 0.03 |
| A55G A90G A118G U132C | 0.16 |

| Variant | self-cleavage |
| --- | --- |
| A30G A47G A59G A92U U103C U108C U127A | 0.01 |
| C16U U26C G74A U102C A117G U120C | 0.22 |
| G7U A23G A30U A59C A66G U72A U87A | 0.56 |
| A89G U97G A117G | 1.7 |
| U26A A64G U108C | 0.01 |
| A4G U132C G138A | 0.95 |
| A5G A90G A117G U133A | 1.1 |
| A54G C107U A110C U124C | 0.01 |
| A4U A24G A52G U57C | 0.89 |
| A24G A64U U72C U108C | 0.04 |
| A18G A78C U132C U139A | 0.2 |
| A23G C40U A125G A129C | 0.11 |
| A24C U102A U108A | 0 |
| U57A A59U U103A A116G U120C | 0.06 |
| A62G A66G A69G | 0.57 |
| G50A A82G A96G U120C U124C | 0.12 |
| G7A U19A U49C | 1.15 |
| A18U A47G U108C | 0.01 |
| U2C C105U U122A A129G | 0.06 |
| U3C U87C U120C | 0.5 |
| U37C A95G U122C | 2.67 |

| Variant | self-cleavage |
| --- | --- |
| U43C U57C A116G | 0.13 |
| A30G U49C A96G A98G | 0.75 |
| A51U A114U G115U | 0 |
| A5U A24G G53A | 0.71 |
| A90G A96G U102C | 1.9 |
| A54G U70A A110G A116U | 0.03 |
| A22U A47G A94G A118G | 0.55 |
| U2C A18G A52G A64G A96G | 0.77 |
| A82U A95G A118G U120C | 0.02 |
| A4G A64G U72A A118G | 0.14 |
| A11G A52G A56C A96C | 1.21 |
| A5G U38C A92G U108C | 0 |
| A52G A126G A140U | 1.24 |
| A18G A51G A95G A110G | 0.13 |
| A5G A59C A116G A126G A134G | 0.21 |
| A54G A118U U130C | 0.67 |
| U3C A33U A67U A78G A126U | 0.24 |
| A22G G44A A68G | 0.42 |
| U9C A66U A111G | 0.06 |
| A33C A64G A92U A114G | 0.04 |
| A13G A51U A86G | 0.45 |

| Variant | self-cleavage |
| --- | --- |
| U39C A78C A96U | 0.45 |
| A55G A60G C112A | 0.07 |
| A82G U102C A140G | 0.93 |
| C6G A89G U108C | 0.02 |
| U38C U43A A118G U139A | 1.03 |
| U2C A33C A36G | 0.57 |
| G50A A51U A78G C113U A118G | 0 |
| U19A U38A U49C A90G A94G U132C | 0.94 |
| A51G A64G A69U A86G | 0.92 |
| A30G A56G U122C U132C | 0.98 |
| A5C U37C A55G | 1.83 |
| A11G A18G A52U U132C | 0.44 |
| U9C U49A G83A | 1.09 |
| G28A U43C C88U A129G | 0.32 |
| A52G A69G U120C A135U | 0.89 |
| A11G A51G A91G A114U U127C | 0.02 |
| A59G A62G U131C | 1.11 |
| A22U G28A U57C C101U A134G | 0.2 |
| A52G A66G U70A U122G | 0.74 |
| U2C U19C A27U U70C G73U U108C G123A | 0.06 |
